Source: PubChem BioAssay AID2147 (National Center for Advancing Translational Sciences (NCATS), 2009)
Out of some 230,000 compounds screened, about 3,600 (1.6%) were called active. The inconclusive results got no clear call from the source; some entries with a clear call stand among them for comparison. The call rests on the fitted dose curve; in most records, active means well fitted inhibition curve with a large enough effect (not every such curve was filed as active); inconclusive means small, poorly fitted or top-dose-only effect, or another doubt; inactive means no such curve, though single readings can be large or run the other way. Where the call is inconclusive, the potency comes from a doubtful curve fit.

What follows are molecules tested against Lysine-specific demethylase 4E (Homo sapiens) (UniProt B2RXH2) (assay: qHTS Assay for Inhibitors of Human Jumonji Domain Containing 2E (JMJD2E)). Conditions: JMJD2E catalytic domain, FDH-coupled NADH fluorescence (FDH is formaldehyde dehydrogenase); series mostly up to 57.1 µM; activity change, negative = inhibition: at the top concentration.
Chain of UniProt B2RXH2 (B2RXH2 whole entry, looked up, the tested form may be a part): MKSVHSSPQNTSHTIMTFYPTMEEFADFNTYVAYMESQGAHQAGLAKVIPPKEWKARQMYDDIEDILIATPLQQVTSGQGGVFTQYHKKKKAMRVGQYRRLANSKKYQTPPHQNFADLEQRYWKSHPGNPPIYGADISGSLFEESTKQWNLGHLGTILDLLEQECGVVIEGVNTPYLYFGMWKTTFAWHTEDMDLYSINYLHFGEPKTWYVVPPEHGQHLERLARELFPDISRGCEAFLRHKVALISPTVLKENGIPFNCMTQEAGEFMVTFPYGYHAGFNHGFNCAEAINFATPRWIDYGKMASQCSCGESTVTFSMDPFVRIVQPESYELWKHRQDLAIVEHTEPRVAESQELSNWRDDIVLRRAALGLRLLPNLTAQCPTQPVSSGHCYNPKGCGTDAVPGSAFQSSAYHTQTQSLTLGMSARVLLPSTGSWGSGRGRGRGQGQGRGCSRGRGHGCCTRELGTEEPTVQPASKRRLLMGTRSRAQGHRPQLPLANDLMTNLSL
Further: nearly all actives have a fitted effect of over 50% in size.
Potency means the concentration at half of the fitted maximal effect; tags describe the fitted curve by direction and shape.
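Wherever activity change, negative = inhibition is given: 0% = wells with enzyme and -100% = buffer wells without enzyme.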

Row | Compound | Potency | activity change, negative = inhibition
1 | COc1ccc(O[C@H]2C=C[C@@H](c3ccccc3)O[C@@H]2COC(=O)CC/C(C)=N/O[C@@H](C)CN2CCCCc3nc(C)c(C)cc32)cc1 | inconclusive: 31.6 µM [inhibitor, single point] | 
2 | CCOc1ccccc1O[C@@H](c1ccccc1)[C@@H]1CNCCO1 | inconclusive: 39.8 µM [inhibitor, single point] | 
3 | O=S(=O)(Nc1ncccn1)c1ccc(NC(=S)Nc2cccc(Cl)c2)cc1 |  | inactive: -3.94%
4 | O=C(Nc1cccnc1)c1ccc(Oc2ccccc2)cc1 |  | inactive: -0.112%
5 | Cc1ccc2nc(-c3ccncc3)cc(C(=O)Nc3ccc(OC(F)F)cc3)c2c1 | inconclusive: 39.8 µM [inhibitor, single point] | 
6 | COCCOC(=O)C1=C(C)OC(N)=C(C#N)C1c1ccc2c(c1)OCO2 (centres undefined) | inconclusive: 31.6 µM [inhibitor, single point] | 
7 | O=C(Cn1nnc(-c2ccccc2-n2cnnn2)n1)NCc1ccccc1 |  | inactive: 2.22%
8 | CC1CCc2nc3ccccc3c(C(=O)OCC(=O)N(C)C3CCS(=O)(=O)C3)c2C1 (centres undefined) | inconclusive: 39.8 µM [inhibitor, single point] | 
9 | CCOc1ccc(C2=Nn3c(nnc3-c3ccc(OC)cc3)SC2)cc1 |  | inactive: 0.332%
10 | COc1ccc2cc(CCNC(=O)C3CCCC3)c(=O)[nH]c2c1 | inconclusive: 39.8 µM [inhibitor, single point] | 
11 | COC(=O)C1=C(O)/C(=C\c2ccc(CNC(=O)C(=O)Nc3ccc(C)cc3)o2)N=C1C |  | inactive: -1.91%
12 | O=C1/C(=C/c2ccncc2)SC(=S)N1N1CCOCC1 | inconclusive: 22.4 µM [inhibitor, single point] | 
13 | Cc1cc(C(=O)OCC(=O)NC(=O)c2cccn2C)c2ccccc2n1 |  | inactive: 0.28%
14 | COc1cc(-c2nc3cnccn3c2Nc2ccc(C)cc2)ccc1O | inconclusive: 8.91 µM [inhibitor, partial curve] | 
15 | CC(C)(C)NC(=O)NC(=O)COC(=O)c1cccc(S(=O)(=O)N2CCCCC2)c1 |  | inactive: 19.4%
16 | Cc1cccc(Oc2nc(CN3CCOCC3)nc3sc4c(c23)CCCC4)c1 |  | inactive: -3.38%
17 | Cc1ccc(S(=O)(=O)OCCc2ccccc2)cc1 |  | inactive: -0.813%
18 | O=S(=O)(c1cccs1)N1CN(Cc2ccccc2)c2nc3ccccc3nc21 | inconclusive: 31.6 µM [inhibitor, single point] | 
19 | CCOC(=O)c1ccc2[nH]c3c(c2c1)CCCCC3=O | inconclusive: 39.8 µM [inhibitor, single point] | 
20 | O=C(c1cc2c(ccc3ccccc32)oc1=O)N1CCN(CCO)CC1 | inconclusive: 28.2 µM [inhibitor, partial curve] | 
21 | CCNC(=O)COC(=O)C1CCC(=O)N(c2ccc(OC)cc2)C1c1ccc(OC)cc1 (centres undefined) |  | inactive: -6.31%
22 | COc1ccc(C(=O)c2sc3nc(C)cc(-c4cccs4)c3c2N)cc1OC |  | inactive: -0.776%
23 | Fc1ccc(COc2ccccc2-c2ccnc3ncnn23)cc1 | inconclusive: 25.1 µM [inhibitor, partial curve] | 
24 | CCCN=C(N)NCCC[C@H](N)C(=O)O | inconclusive: 35.5 µM [inhibitor, single point] | 
25 | COC(=O)CN1C(=O)C2(C(C#N)=C(N)Oc3n[nH]c(-c4cccs4)c32)c2ccccc21 (centres undefined) |  | inactive: 4.59%

Row | Compound | Potency | activity change, negative = inhibition
26 | Cc1ccc(NC(=O)CSc2nnc(CCNC(=O)OC(C)(C)C)o2)c(C)c1 |  | inactive: 4.05%
27 | O=C1c2cccnc2C(=O)N1CNc1ccc(Cl)cc1 |  | inactive: -4%
28 | CCc1ccc2[nH]c(=O)c(CN(Cc3ccccc3)Cc3nnnn3Cc3ccco3)cc2c1 | inconclusive: 28.2 µM [inhibitor, single point] | 
29 | c1ccc2c(c1)OC(CCCN1CCCCC1)c1ccccc1S2 (centres undefined) |  | inactive: 3.08%
30 | C/C(=N\NS(=O)(=O)c1cccc([N+](=O)[O-])c1)c1cccnc1 |  | inactive: -20.8%
31 | N[C@H](CCC(=O)NCC(=O)O)C(=O)O |  | inactive: -0.228%
32 | Cc1ccccc1-n1c(CSC(=N)N)nc2ccccc2c1=O | inconclusive: 39.8 µM [inhibitor, single point] | 
33 | CC1(C)CC(Nc2ccc(Nc3ccccc3)cc2)CC(C)(C)N1 |  | inactive: 7.74%
34 | Cc1c(Br)c([N+](=O)[O-])nn1CCCC(=O)Nc1sc2c(c1C(N)=O)CCC(C)C2 (centres undefined) |  | inactive: 12.6%
35 | CC(C)[C@@H](CO)NC(=O)c1ccc2c3n(nc2c1)-c1ccc(Cl)cc1CO3 | inconclusive: 39.8 µM [inhibitor, single point] | 
36 | CC(=O)C1=C(O)C(=O)N(CC#N)C1c1cccs1 (centres undefined) |  | inactive: 0.427%
37 | Cc1ccc(C2/C(=C(/O)c3ccccc3)C(=O)C(=O)N2CCN2CCOCC2)o1 (centres undefined) |  | inactive: -2.09%
38 | Cc1ccc(-n2nnnc2-c2ccccc2)cc1 |  | inactive: 4%
39 | CCCCSc1nc(N)c(C#N)c(-c2cccs2)c1C#N | inconclusive: 31.6 µM [inhibitor, single point] | 
40 | O=C(O)c1c(Cl)c(Cl)c(Cl)c(Cl)c1C(=O)N1CCCC1 |  | inactive: -1.35%
41 | Nc1c2c(nc3ccn(-c4ccccc4)c(=O)c13)CCCCC2 | inconclusive: 28.2 µM [inhibitor, single point] | 
42 | COC(=O)[C@@]1(Cc2ccc(F)cc2)[C@H]2c3cc(C(=O)N4CCCC4)n(Cc4cc(F)cc5c4OCOC5)c3C[C@H]2CN1C(=O)c1ccccc1 | inconclusive: 28.2 µM [inhibitor, single point] | 
43 | COc1c2ccoc2nc2c(OC)cccc12 | inconclusive: 31.6 µM [inhibitor, partial curve] | 
44 | CCn1c(=O)cc(SCC(=O)NCc2cccnc2)c2ccccc21 | inconclusive: 28.2 µM [inhibitor, partial curve] | 
45 | CN1CCc2nc(SCC(=O)Nc3ccc(F)cc3)c(C#N)cc2C1 | inconclusive: 28.2 µM [inhibitor, single point] | 
46 | O=C(Nc1cc2c(ccc3ccccc32)oc1=O)C1CCCCC1 | inconclusive: 1.26 µM [inhibitor, full curve] | 
47 | CC(=O)Nc1ccc(/C=N/NC(=O)c2cc(-c3ccco3)nc3ccccc23)cc1 | inconclusive: 35.5 µM [inhibitor, partial curve] | 
48 | O=c1oc2ccccc2c(O)c1/C=N/c1ncccn1 | inconclusive: 39.8 µM [inhibitor, single point] | 
49 | CC(C)=CCC(C)(C)/C=N/NC(N)=O |  | inactive: 1.11%
50 | O=C(NCc1ccco1)c1cc(-c2cccs2)nc2ccccc12 | inconclusive: 31.6 µM [inhibitor, partial curve] | 

Row | Compound | Potency | activity change, negative = inhibition
51 | Cc1ccc(S(=O)(=O)c2nc(N3CCOCC3)sc2Cl)cc1 | inconclusive: 39.8 µM [inhibitor, single point] | 
52 | CCc1ccc2[nH]c(=O)c(CN(CCN(C)C)C(=S)NCc3ccco3)cc2c1 | inconclusive: 25.1 µM [inhibitor, partial curve] | 
53 | O=c1cc(-c2ccc(O)cc2)oc2cc(O)ccc12 | inconclusive: 0.794 µM [inhibitor, partial curve] | 
54 | COc1cccc(/C=c2\sc3nc(-c4cccs4)nn3c2=O)c1OC |  | inactive: 0.303%
55 | COc1ccc(CC(=O)Nc2ccc(-c3nc4cc(C)ccc4o3)c(O)c2)cc1OC | inconclusive: 6.31 µM [inhibitor, partial curve] | 
56 | C=CCNCC(=O)N1N=C(c2ccc3ccccc3c2)CC1c1ccc(OC)cc1 (centres undefined) | inconclusive: 28.2 µM [inhibitor, partial curve] | 
57 | COc1ccc2oc(C(=O)OCc3c(C)noc3C)c(C)c2c1 | inconclusive: 28.2 µM [inhibitor, partial curve] | 
58 | O=C(Oc1ccc[nH]c1=O)c1cc([N+](=O)[O-])cc([N+](=O)[O-])c1 | inconclusive: 31.6 µM [inhibitor, single point] | 
59 | CCOC(=O)c1cc2c(ccn2C)n1Cc1ccccc1Cl | inconclusive: 39.8 µM [inhibitor, single point] | 
60 | CCN(CC)S(=O)(=O)c1ccc(NC(=O)Nc2cccc(C(F)(F)F)c2)cc1 |  | inactive: -3.61%
61 | Cc1ccc(N/C=C/c2onc(C)c2[N+](=O)[O-])cc1 |  | inactive: 0.836%
62 | C=CCn1c(SCC(=O)NCc2ccco2)nc2sc3c(c2c1=O)CCC3 | inconclusive: 35.5 µM [inhibitor, single point] | 
63 | Cc1cc(C)nc(SC(C)C(=O)O)n1 (centres undefined) | inconclusive: 28.2 µM [inhibitor, single point] | 
64 | COc1cc2c(cc1OC)-c1cc(OCc3cccnc3)nc(=O)n1CC2 | inconclusive: 28.2 µM [inhibitor, partial curve] | 
65 | O=C(Nc1ccccc1)Nc1ccc2snnc2c1 | inconclusive: 39.8 µM [inhibitor, single point] | 
66 | Cc1ccc(-c2nc3ncccn3c2Nc2ccc3c(c2)OCCO3)o1 |  | inactive: -8.87%
67 | O=C(CSC1=NC(=O)C(c2ccccc2)C(=O)N1)Nc1ccccc1[N+](=O)[O-] (centres undefined) |  | inactive: -10.9%
68 | CC[N+]1=CN(c2ccccc2)C(C)=CC1(C)C | inconclusive: 28.2 µM [inhibitor, single point] | 
69 | CC(C)CCOCC(=O)Oc1ccccc1C(=O)O | inconclusive: 25.1 µM [inhibitor, partial curve] | 
70 | O=C(COC(=O)c1ccc2c(c1)S(=O)(=O)N=C1CCCCCN12)NCCc1ccc(F)cc1 | inconclusive: 39.8 µM [inhibitor, single point] | 
71 | Cc1ccc2[nH]c(C)cc(=S)c2c1 | inconclusive: 35.5 µM [inhibitor, single point] | 
72 | CCc1ccc(C2(C)SC(NC(C)=O)=NN2C(C)=O)cc1 (centres undefined) |  | inactive: 0.386%
73 | CSC(=NS(=O)(=O)c1ccccc1)SC | inconclusive: 25.1 µM [inhibitor, partial curve] | 
74 | CNC(=O)c1cc2c(ccc3ccccc32)o1 | inconclusive: 31.6 µM [inhibitor, partial curve] | 
